From the supplement of paper PMC10037445
Where “and” joins values, the source holds several entries; their conditions need not be identical. Equal values may be shown once. ± gives the standard deviation of the averaged measurements. In all, about 2,900 compounds were measured (“NF-kB SEAP reporter activity, fold change vs agonist alone”: median about 0.99, highest 2% from about 2.6 on). The list shows a part of the results.

How the values were obtained:
RAW-Dual [1] = test: NF-kB SEAP reporter activity, fold change vs agonist alone; cytotoxicity flag (confluency mask): not cytotoxic; higher = enhanced NF-kB activity
Outline: (§1)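 Library stock was pin-tooled at 50 nL into 384-well plates of RAW-Dual macrophages (50,000 cells/well, DMEM), followed 1 h later by a PRR agonist, and the cells were kept at 37 °C, 5% CO2. Supernatant collected after 20 hours was read for IRF by QuantiLuc luminescence and for NF-κB by QuantiBlue absorbance at 620 nm. Reporter activity is fold change over agonist-alone wells, and a well counted as cytotoxic when its IncuCyte confluency was below 70% of agonist controls in both mask sets.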

RAW-Dual [2] = test: NF-kB SEAP reporter activity, fold change vs agonist alone; higher = enhanced NF-kB activity; conditions: library stock concentration (final ~1000-fold dilution): 10 mM
Outline: as §1

RAW-Dual [3] = test: NF-kB SEAP reporter activity, fold change vs agonist alone; cytotoxicity flag (confluency mask): cytotoxic (confluency <70% of control); higher = enhanced NF-kB activity
Outline: as §1

[4] = agonist: ODN 1826 (TLR9) 0.5 ug/mL
[5] = agonist: Pam2CSK4 (TLR2/6) 0.1 ug/mL
[6] = agonist: Pam3CSK4 (TLR2/1) 0.1 ug/mL
[7] = cytotoxicity flag (confluency mask): not cytotoxic, agonist: Imiquimod (TLR7) […]
[8] = cytotoxicity flag (confluency mask): not cytotoxic, agonist: MPLA (TLR4) […]
[9] = cytotoxicity flag (confluency mask): cytotoxic (confluency <70% of control), agonist: Imiquimod (TLR7) […]
[10] = cytotoxicity flag (confluency mask): cytotoxic (confluency <70% of control), agonist: MPLA (TLR4) […]

CNCc1ccc(-c2[nH]c3cc(F)cc4c3c2CCNC4=O)cc1 (library stock concentration (final ~1000-fold dilution): 10 mM)
NF-kB SEAP reporter activity (RAW-Dual [1]; agonist: LPS (TLR4) 0.1 ug/mL): 0.75 | NF-kB SEAP reporter activity (RAW-Dual [1]; [4]): 0.182 | NF-kB SEAP reporter activity (RAW-Dual [1]; [5]): 1.26 | NF-kB SEAP reporter activity (RAW-Dual [1]; [6]): 0.903

CNCc1ccc(-c2[nH]c3cc(F)cc4c3c2CCNC4=O)cc1
NF-kB SEAP reporter activity (RAW-Dual [2]; [7]): 1.13 | NF-kB SEAP reporter activity (RAW-Dual [2]; [8]): 0.75

CCNC(=O)c1noc(-c2cc(C(C)C)c(O)cc2O)c1-c1ccc(CN2CCOCC2)cc1 (library stock concentration (final ~1000-fold dilution): 10 mM)
NF-kB SEAP reporter activity (RAW-Dual [3]; agonist: LPS (TLR4) 0.1 ug/mL): 0.325 | NF-kB SEAP reporter activity (RAW-Dual [3]; [4]): 0.236 | NF-kB SEAP reporter activity (RAW-Dual [3]; [5]): 0.142 | NF-kB SEAP reporter activity (RAW-Dual [3]; [6]): 0.159

CCNC(=O)c1noc(-c2cc(C(C)C)c(O)cc2O)c1-c1ccc(CN2CCOCC2)cc1
NF-kB SEAP reporter activity (RAW-Dual [2]; [9]): 0.286 | NF-kB SEAP reporter activity (RAW-Dual [2]; [10]): 0.742

CC(=O)c1cc([N+](=O)[O-])c(Sc2ccc(F)cc2F)s1
NF-kB SEAP reporter activity (RAW-Dual [2]; [9]): 2.22 | NF-kB SEAP reporter activity (RAW-Dual [2]; [10]): 0.387

CC(=O)c1cc([N+](=O)[O-])c(Sc2ccc(F)cc2F)s1 (library stock concentration (final ~1000-fold dilution): 10 mM)
NF-kB SEAP reporter activity (RAW-Dual [3]; agonist: LPS (TLR4) 0.1 ug/mL): 0.257 | NF-kB SEAP reporter activity (RAW-Dual [3]; [4]): 1.47 | NF-kB SEAP reporter activity (RAW-Dual [3]; [5]): 1.15 | NF-kB SEAP reporter activity (RAW-Dual [3]; [6]): 0.767

C=CCc1ccc(O)c(-c2cc(CC=C)ccc2O)c1
NF-kB SEAP reporter activity (RAW-Dual [2]; [7]): 0.984 ± 0.07 | NF-kB SEAP reporter activity (RAW-Dual [2]; [8]): 0.885 ± 0.012

C=CCc1ccc(O)c(-c2cc(CC=C)ccc2O)c1 (library stock concentration (final ~1000-fold dilution): 10 mM)
NF-kB SEAP reporter activity (RAW-Dual [1]; agonist: LPS (TLR4) 0.1 ug/mL): 0.933 ± 0.12 | NF-kB SEAP reporter activity (RAW-Dual [1]; [4]): 0.588 ± 0.04 | NF-kB SEAP reporter activity (RAW-Dual [1]; [5]): 0.795 ± 0.14 | NF-kB SEAP reporter activity (RAW-Dual [1]; [6]): 0.855 ± 0.046

COc1cc(O)cc(O)c1C(=O)C=Cc1ccccc1
NF-kB SEAP reporter activity (RAW-Dual [2]; [9]): 2.12 | NF-kB SEAP reporter activity (RAW-Dual [2]; [10]): 0.714

COc1cc(O)cc(O)c1C(=O)C=Cc1ccccc1 (library stock concentration (final ~1000-fold dilution): 10 mM)
NF-kB SEAP reporter activity (RAW-Dual [3]; agonist: LPS (TLR4) 0.1 ug/mL): 0.369 | NF-kB SEAP reporter activity (RAW-Dual [3]; [4]): 0.565 | NF-kB SEAP reporter activity (RAW-Dual [3]; [5]): 1.36 | NF-kB SEAP reporter activity (RAW-Dual [3]; [6]): 0.553

CC(c1ccc2nccn2c1)n1nnc2ncc(-c3cnn(C)c3)nc21 (configuration not stated)
NF-kB SEAP reporter activity (RAW-Dual [2]; [7]): 0.897 | NF-kB SEAP reporter activity (RAW-Dual [2]; [8]): 1.07

CC(c1ccc2nccn2c1)n1nnc2ncc(-c3cnn(C)c3)nc21 (configuration not stated) (library stock concentration (final ~1000-fold dilution): 10 mM)
NF-kB SEAP reporter activity (RAW-Dual [1]; agonist: LPS (TLR4) 0.1 ug/mL): 1.22 | NF-kB SEAP reporter activity (RAW-Dual [1]; [4]): 0.99 | NF-kB SEAP reporter activity (RAW-Dual [1]; [5]): 1 | NF-kB SEAP reporter activity (RAW-Dual [1]; [6]): 0.786

Cc1onc(-c2c(Cl)cccc2Cl)c1C(=O)NC1C(=O)N2C1SC(C)(C)C2C(=O)O (configuration not stated)
NF-kB SEAP reporter activity (RAW-Dual [2]; [7]): 0.898 | NF-kB SEAP reporter activity (RAW-Dual [2]; [8]): 0.979

Cc1onc(-c2c(Cl)cccc2Cl)c1C(=O)NC1C(=O)N2C1SC(C)(C)C2C(=O)O (configuration not stated) (library stock concentration (final ~1000-fold dilution): 10 mM)
NF-kB SEAP reporter activity (RAW-Dual [1]; agonist: LPS (TLR4) 0.1 ug/mL): 0.881 | NF-kB SEAP reporter activity (RAW-Dual [1]; [4]): 0.949 | NF-kB SEAP reporter activity (RAW-Dual [1]; [5]): 1.13 | NF-kB SEAP reporter activity (RAW-Dual [1]; [6]): 1.07

C=C1CCN(C(C)C(O)(Cn2cncn2)c2ccc(F)cc2F)CC1 (configuration not stated)
NF-kB SEAP reporter activity (RAW-Dual [2]; [10]): 1.81

C=C1CCN(C(C)C(O)(Cn2cncn2)c2ccc(F)cc2F)CC1 (configuration not stated) (library stock concentration (final ~1000-fold dilution): 10 mM)
NF-kB SEAP reporter activity (RAW-Dual [3]; agonist: LPS (TLR4) 0.1 ug/mL): 1.58 | NF-kB SEAP reporter activity (RAW-Dual [3]; [4]): 1.41 | NF-kB SEAP reporter activity (RAW-Dual [3]; [5]): 0.89 | NF-kB SEAP reporter activity (RAW-Dual [3]; [6]): 0.999

Cc1ccc2nc(NCCN)c3ncc(C)n3c2c1 (library stock concentration (final ~1000-fold dilution): 10 mM)
NF-kB SEAP reporter activity (RAW-Dual [1]; agonist: LPS (TLR4) 0.1 ug/mL): 1.13 | NF-kB SEAP reporter activity (RAW-Dual [1]; [4]): 0.745 | NF-kB SEAP reporter activity (RAW-Dual [1]; [5]): 0.544 | NF-kB SEAP reporter activity (RAW-Dual [1]; [6]): 0.572 | NF-kB SEAP reporter activity (RAW-Dual [3]; agonist: LPS (TLR4) 0.1 ug/mL): 0.336 and 0.342 | NF-kB SEAP reporter activity (RAW-Dual [3]; [4]): 0.189 and 0.336 | NF-kB SEAP reporter activity (RAW-Dual [3]; [5]): 0.0751 and 0.168 | NF-kB SEAP reporter activity (RAW-Dual [3]; [6]): 0.167 and 0.278

Cc1ccc2nc(NCCN)c3ncc(C)n3c2c1
NF-kB SEAP reporter activity (RAW-Dual [2]; [7]): 1.17 | NF-kB SEAP reporter activity (RAW-Dual [2]; [8]): 1.7
